The other results are listed elsewhere or left out. These are noisy estimates, calculated here from bound and input reads.

The target of the assay is T1, Pho4 (S. cerevisiae) (UniProt P07270).
T1 sequence: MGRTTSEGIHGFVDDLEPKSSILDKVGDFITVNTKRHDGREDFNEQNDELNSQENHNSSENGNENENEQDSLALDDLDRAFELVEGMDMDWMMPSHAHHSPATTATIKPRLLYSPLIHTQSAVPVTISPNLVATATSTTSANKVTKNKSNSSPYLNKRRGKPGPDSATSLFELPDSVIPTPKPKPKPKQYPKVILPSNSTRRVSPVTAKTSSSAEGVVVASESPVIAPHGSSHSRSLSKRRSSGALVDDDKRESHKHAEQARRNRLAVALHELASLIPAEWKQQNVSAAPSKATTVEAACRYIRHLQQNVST
The assay is described as follows: relative binding free energy (BET-seq); higher = weaker binding. The note with it: reference: library average.
On to TTATGCACGTGTAAGT, for which the “relative binding free energy” value turned out to be 0.17 kcal/mol. The figure for ATATACACGTGGTCGT is -0.16 kcal/mol. The figure for TCTCTCACGTGTGTGG is 0.17 kcal/mol; for TTAAACACGTGGTCGG it is -0.12 kcal/mol.

On to TTTAGCACGTGTTCGC, for which the “relative binding free energy” value was 0 kcal/mol. The figure for TGTGTCACGTGGCGAG is 0.01 kcal/mol; for GTAGGCACGTGACGGA it is 0.06 kcal/mol. The figure for TGTACCACGTGTGGCG is 0 kcal/mol; for GGTTCCACGTGGGTTA it is 0.02 kcal/mol. On to GGTCTCACGTGGCGTG, for which the “relative binding free energy” value came to 0.08 kcal/mol. As to CATTTCACGTGGGGCT, the “relative binding free energy” value was found to be 0.11 kcal/mol. As for GTGCGCACGTGTTGGG, the figure is -0.05 kcal/mol; as for TGAGGCACGTGCTGCT, -0.04 kcal/mol. Take TGTTCCACGTGGCTGG: the “relative binding free energy” value is -0.14 kcal/mol.

For the sequence TGTAACACGTGAGATT, the “relative binding free energy” value came to 0.4 kcal/mol. For the sequence GGGAGCACGTGTTGTC, the “relative binding free energy” value is 0.1 kcal/mol. With TGAATCACGTGTGTCG, the “relative binding free energy” value was 0.15 kcal/mol.

ATGTTCACGTGATGCG: the “relative binding free energy” value was 0.27 kcal/mol. As for TGGGTCACGTGGGCTC, the figure is 0.03 kcal/mol; as for TTCTGCACGTGGGATG, -0.16 kcal/mol; as for GGTTGCACGTGACGAG, 0.16 kcal/mol.

Turning to GATGGCACGTGTGTTA, the “relative binding free energy” value was found to be 0.08 kcal/mol. In the case of GTTGGCACGTGTCCTG, the “relative binding free energy” value was -0.14 kcal/mol. Consider TGTAGCACGTGTTGGA, for which the “relative binding free energy” value is -0.09 kcal/mol.

Turning to TTAGTCACGTGATCTT, the “relative binding free energy” value worked out at 0.15 kcal/mol. On to GTGTACACGTGCATGT, for which the “relative binding free energy” value was -0.14 kcal/mol.

Regarding GTCCTCACGTGGTGTT, the “relative binding free energy” value came to 0.15 kcal/mol.

Regarding TATGACACGTGGGCAG, the “relative binding free energy” value is -0.1 kcal/mol.

Consider CGGAGCACGTGTGTAG, for which the “relative binding free energy” value is -0.21 kcal/mol. Consider GGTGTCACGTGAATAA, for which the “relative binding free energy” value worked out at 0.27 kcal/mol.

With ATTGTCACGTGGTTAT, the “relative binding free energy” value was 0.03 kcal/mol. As for CTTGTCACGTGGTAGT, the figure is 0 kcal/mol. As for GCGCTCACGTGATGTT, the “relative binding free energy” value was determined as 0.49 kcal/mol. Regarding TATGTCACGTGCAGGT, the “relative binding free energy” value was -0.01 kcal/mol. As for TTGGACACGTGTGGCA, the figure is 0 kcal/mol; as for GATAACACGTGTGGGC, 0.09 kcal/mol; as for TATACCACGTGATTGT, 0.07 kcal/mol.

On to AGGTCCACGTGTGTTG, for which the “relative binding free energy” value came to 0.01 kcal/mol.

Turning to CGAATCACGTGGTATG, the “relative binding free energy” value was 0.11 kcal/mol.

With TTTTTCACGTGAAGTT, the “relative binding free energy” value stood at 0.34 kcal/mol. As to ATTTACACGTGTTACT, the “relative binding free energy” value amounted to 0.12 kcal/mol.

TGTTGCACGTGAATGC: the “relative binding free energy” value worked out at 0.24 kcal/mol. Consider CGTGTCACGTGTATGG, for which the “relative binding free energy” value turned out to be 0.05 kcal/mol. As to CTAAACACGTGGTGGT, the “relative binding free energy” value is 0.01 kcal/mol. As for GAAGTCACGTGAGGAT, the figure is 0.31 kcal/mol; as for TATGACACGTGTCGTG, -0.08 kcal/mol. As for AGTTACACGTGATCAG, the figure is 0.26 kcal/mol. As for TGACGCACGTGTGATT, the figure is 0.14 kcal/mol; as for TTTGGCACGTGGTCAA, -0.34 kcal/mol; as for GTGTGCACGTGTAAGG, 0.07 kcal/mol. With GATGGCACGTGCTGTT, the “relative binding free energy” value was -0.01 kcal/mol. Consider TGTGGCACGTGAGTTC, for which the “relative binding free energy” value was 0.22 kcal/mol. As for CTGGGCACGTGGGTTC, the figure is -0.27 kcal/mol; as for AAGGGCACGTGTGGGA, 0 kcal/mol. As for AATAGCACGTGTTGAT, the figure is -0.02 kcal/mol; as for GAGATCACGTGTGTTT, 0.16 kcal/mol.

AGGCCCACGTGGGTTG: the “relative binding free energy” value was -0.21 kcal/mol.

For TGAAACACGTGGTGTA, the “relative binding free energy” value turned out to be 0.01 kcal/mol.

As to GGGCTCACGTGATGAT, the “relative binding free energy” value is 0.48 kcal/mol. With CTGTGCACGTGGGCGA, the “relative binding free energy” value was -0.15 kcal/mol. The figure for AGTGGCACGTGGATTC is -0.1 kcal/mol; for GGGGGCACGTGTGGGT it is 0.01 kcal/mol. With GGGCGCACGTGATTGT, the “relative binding free energy” value is 0.08 kcal/mol. With TAAGGCACGTGAGTGC, the “relative binding free energy” value was 0.25 kcal/mol. For ACAGACACGTGGTGTT, the “relative binding free energy” value came out at 0.03 kcal/mol. For GAGTGCACGTGGAGGT, the “relative binding free energy” value is 0.05 kcal/mol.

Regarding AAGTGCACGTGTAGTT, the “relative binding free energy” value was -0.03 kcal/mol. As to TTTTTCACGTGTGCGG, the “relative binding free energy” value was 0.27 kcal/mol. As to TGTAGCACGTGCTTAT, the “relative binding free energy” value was -0.18 kcal/mol. The figure for TTTCACACGTGGCGTG is 0.02 kcal/mol; for TGTATCACGTGCGAGG it is 0.13 kcal/mol; for TCATCCACGTGTTGGT it is 0.06 kcal/mol. The figure for GGTTGCACGTGATGGC is 0.35 kcal/mol.
